Measured values from PubChem BioAssay AID588855 (National Center for Advancing Translational Sciences (NCATS), 2011).
About 5,000 (1.2%) of roughly 410,000 compounds were called active. The inconclusive results got no clear call from the source; some entries with a clear call stand among them for comparison. The call rests on the fitted dose curve; in most records, active means well fitted inhibition curve with a large enough effect; inconclusive means small, poorly fitted or top-dose-only effect; inactive means no such curve, though single readings can be large or run the other way. Where the call is inconclusive, the potency comes from a doubtful curve fit.

assay: qHTS for Inhibitors of TGF-b; conditions: HepG2 CAGA-GFP TGF-b/SMAD3 reporter, GFP fluorescence, 18 h, TGF-beta stimulated, 500 pg/mL final; series mostly up to 46.1 µM; further: nearly all actives have a fitted effect of over 65% in size
In short: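 TGF-beta reporter screen: HEPG2 CAGA-GFP, 1% FBS, 500 pg/mL TGF-beta final, 18 h; per-cell GFP summed per well; curves fitted and categorized by class.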
Potency means the concentration at half of the fitted maximal effect; tags describe the fitted curve by direction and shape.

Row | Compound | Potency
1 | Cc1sc(-c2cc3ccccc3oc2=O)nc1-c1ccc(Cl)cc1 | inactive
2 | Cc1ccc2nnn(Cc3cccc(C(C)(C)C)c3O)c2c1 | inconclusive: 14.1 µM [inhibitor, single point]
3 | COc1cc(SC)ccc1C(=O)N(Cc1ccccc1)c1ccccn1 | inactive
4 | COC(=O)c1cc(S(=O)(=O)N2CCN(c3ccc(C)cc3C)CC2)cn1C | inactive
5 | CCOC(=O)c1sc(Nc2nc3c(OC)cccc3s2)cc1C | inconclusive: 35.5 µM [inhibitor, single point]
6 | COc1ccc(CN(CCC(c2ccc(F)cc2)C2CCOC(C)(C)C2)C(=O)c2ccco2)cc1 (centres undefined) | inconclusive: 35.5 µM [inhibitor, single point]
7 | N#Cc1ccccc1S(=O)(=O)N1CCN(C(=O)C2CCC2)CC1 | inactive
8 | CC(C)c1ccc(NC(=O)c2cc(S(=O)(=O)N3CCCC3)c[nH]2)cc1 | inconclusive: 15.8 µM [inhibitor, single point]
9 | Oc1ccc(-c2csc(-c3ccccc3)n2)cc1O | inconclusive: 35.5 µM [inhibitor, single point]
10 | CCOc1ccccc1CNC(=O)c1nn(C)c2c1CS(=O)(=O)c1ccccc1-2 | inactive
11 | Cc1ccc2nc(CSc3nnc4ccccn34)cc(=O)n2c1 | inactive
12 | CC(C)c1ccc(CNc2nc(-c3ccco3)nn2S(=O)(=O)c2ccccc2)cc1 | inactive
13 | Cc1cc(Cl)c(OCCCNC2CCCC2)c(Br)c1 | inconclusive: 25.1 µM [inhibitor, single point]
14 | CC(C)CNC(=S)N1CCC(NC(=O)C23CC4CC(CC(C4)C2)C3)CC1 | inactive
15 | CCOc1ccc(/C=C/c2nc(C#N)c(N(C)C)o2)cc1 | inconclusive: 12.6 µM [inhibitor, single point]
16 | COc1ccc(N2CCN(C(CNC(=O)c3ccc(C)cc3)c3ccc4c(c3)OCO4)CC2)cc1 (centres undefined) | inconclusive: 14.1 µM [inhibitor, single point]
17 | CC(=O)OCCSc1c(-c2ccccc2)c2cc(Cl)ccc2[nH]c1=O | inconclusive: 35.5 µM [inhibitor, single point]
18 | NC(=O)C1CC(=O)N(c2ccc(OCC(=O)N3CCCC3)cc2)C1 (centres undefined) | inconclusive: 0.708 µM [inhibitor, partial curve, poor fit]
19 | Cc1ccc2sc(N(CCCN(C)C)C(=O)c3ccc(S(=O)(=O)N(C)C4CCCCC4)cc3)nc2c1C | inconclusive: 15.8 µM [inhibitor, partial curve, poor fit]
20 | CN(C)CCCn1c(=O)n(Cc2ccccc2)c(=O)c2c3c(sc21)CCCCC3 | inconclusive: 28.2 µM [inhibitor, single point]
21 | c1ccc(-c2nnc3sc(-c4csc5c4CCCC5)nn23)cc1 | inconclusive: 35.5 µM [inhibitor, single point]
22 | COc1ccc(Cc2noc(-c3ccc(OC)c(OC)c3)n2)cc1OC | inconclusive: 0.501 µM [inhibitor, full curve]

Row | Compound | Potency
23 | Cc1ccnc(SCc2cc(=O)c(OC(=O)c3cc([N+](=O)[O-])ccc3Cl)co2)n1 | inconclusive: 3.98 µM [inhibitor, full curve, poor fit]
24 | CN=C1c2cc3cc(OC)ccc3n2CCN1Cc1ccccc1 | inconclusive: 15.8 µM [inhibitor, single point]
25 | COc1ccc2[nH]cc(CCNC(=S)NC3CCCC3)c2c1 | inconclusive: 35.5 µM [inhibitor, single point]
26 | NC(=O)c1nc(C(=O)N2CCCCC2)c2ccccc2n1 | inactive
27 | CCCCCCCCCCCCCCCC[n+]1ccc(/C=C/c2c[nH]c3ccccc23)c2ccccc21 | inconclusive: 35.5 µM [inhibitor, single point]
28 | COc1ccc(S(=O)(=O)N2CCCCC2)cc1NC(=O)C1CC(=O)N(Cc2ccco2)C1 (centres undefined) | inactive
29 | N#C/C(=C\c1ccc(O)c(O)c1)C(=O)Nc1ccccc1 | inactive
30 | CCn1ncc(C2=NOC(C(=O)Nc3cccc(C(C)=O)c3)C2)c1C (centres undefined) | inactive
31 | CCN1CCC(O)(/C=C/c2ccc(C(C)C)cc2)C(C(=O)/C=C/c2ccc(C(C)C)cc2)C1 (centres undefined) | active: 8.91 µM
32 | O=[N+]([O-])c1cccc(/C=N\N2CCN(c3ccc(Cl)cc3)CC2)c1 | inconclusive: 6.31 µM [inhibitor, single point]
33 | COCCN1C=C2C(=O)C(C)(OC(=O)C3CCCC3)C(=O)C(c3ccccc3)=C2C=C1CCCC(=O)OC (centres undefined) | inconclusive: 22.4 µM [inhibitor, single point]
34 | O=C(NCCOc1ccccc1)N1[C@H]2CC[C@@H]1C=C(c1ccc(F)cc1OCc1ccccc1)C2 | inconclusive: 15.8 µM [inhibitor, single point]
35 | COc1ccccc1C(=O)Nc1ccnn1C1CCN(Cc2cnc(N(C)C)s2)CC1 | inconclusive: 1.41 µM [inhibitor, partial curve, poor fit]
36 | COc1ccccc1-c1cn[nH]c1-c1ccc(OCc2ccc([N+](=O)[O-])cc2)cc1O | inconclusive: 35.5 µM [inhibitor, single point]
37 | CCOC(=O)c1c(C)[nH]c(=S)c(C#N)c1-c1ccc(Cl)cc1 | inactive
38 | CCCN(CCC)c1nn2c(=O)c(C(=O)NCc3cccc(OC)c3)cnc2s1 | inconclusive: 35.5 µM [inhibitor, single point]
39 | Cc1onc(-c2ccccc2Cl)c1C(=O)Nc1nc2ccc(S(C)(=O)=O)cc2s1 | inconclusive: 7.08 µM [inhibitor, partial curve, poor fit]
40 | CCCCNC(=O)c1onc(CSc2ccccn2)c1C(=O)NCCCC | inconclusive: 35.5 µM [inhibitor, single point]
41 | COc1cc(C(=O)Sc2ccc(C)cc2)cc(OC)c1OC | inconclusive: 35.5 µM [inhibitor, single point]
42 | CC(C)(C)NC(=O)NC(=O)CSc1nncs1 | inactive
43 | COc1ccc([C@H]2CC(=O)C=C(c3cc(OC)ccc3OC)C2)cc1 | inconclusive: 5.01 µM [inhibitor, partial curve]
44 | O=C(NCc1ccccc1)C(=O)NCC(c1ccco1)S(=O)(=O)c1ccccc1 (centres undefined) | inconclusive: 0.282 µM [inhibitor, full curve, poor fit]
